Results taken from the RNAGym collection of RNA variant scans (doi:10.7554/elife.90254).
The source gives no read counts; variants with many changes may rest on few reads.

B1: LINE1-mini (parent)
chain: GGCAGAGCUCAACACAGCGUGGCAAAGUGGCUGUGGCUAGACUGCC

Variants of: B1
Test: self-cleavage, relative activity (ratio to wild type); higher = more cleavage; in vitro, sequencing; the parent is a self-cleaving ribozyme

Variant	self-cleavage
GUCAGAGCUCCACACAGCGGGGCAAAGUAGGUGUGGCUAGACUGCC	0
GGAAGAGCUCAACACUGCGUGGCAAAGUAGCCGUGGCUAGACUGCC	0.12
GGCAGAGCUCAACACAGCUUGGCAAACUGGCUGUGGCAAGACUGCC	0.31
GGCAAAGCUAAACAAAGCGUGGCAAAGUGGCUGUGGCUAGACUGCC	0.04
GGCAGAGCCCUACACAGCGUGUCAAAGUGGCUGUAGCUAGUCUGCC	0.01
GACAGAUCUCAAAACAGCGUGUCAAAGUGGCUGUGGCUAGACUGCC	0.05
GGCAGAGCUCAACGCAGGGUGCCAAAGUGGCUGUGGCUAGACUGCC	0.35
GGCAGAGCUAAACACAGCGUGGCAAAGUGGCUGUGGCUAGAUUGCA	0.02
GGCUGAGCUCAACACAGCGUGCCAAGGUGGCUGUGGCUAGACUGCC	0.05
GGCAUAGCGCAAAACAGCUUGGCAAAGUGGUUGUGGCUAGACUGCU	0.02
GGCAGACAUCAACAUCGCGUGGCAAAGUGGCUGUGUCUAGACUGCC	0.03
UGCAGAGCUCAACACAGCGUGGCUAAGUGGCUGUGGCUUGUCUGCC	0.14
GGAAGAGCUCUACACAGCGUGGCAAAGUGGCUGGGGCUAGACUGCC	0.02
GGUAGAGCUCAACACAGCGUGGCAAAGUGGCUGUGUCUAUACUGCC	0.22
GGUAGAGCUCAACACAGCGCGGCAAUGUGGCUGUGGCUAGACUGCC	0.13
CGCAGCGCUCAACACAGCGUGGCAAAGUGGCUGUGGCUAGACUGGC	0.02
GACAGAGCUCAACAUAGCGUGGCAAAGUGGCUGUGGCUAGACUUCC	0.72
GACCGAGCUCAACACAGCUUGGCAAAGUGGCUGUGGCUAGACUGCC	0.08
GGCAGAGCUCAACAAAGCGUGGCAAAUUGGCUGUGGAUAGUCUGCC	0.07

Variant	self-cleavage
GGCAGAGCUCAACACACCGUGGCAAAGUGGUUGUGGCUAGAAUUCC	0.02
GGCAGAGCACAACACGGCGUGGUAAAUUGGCUGGGGCUAGACUGCC	0.16
GGCAUAGCUCAACGCAUCGUGACAAAGUGGCUGUGGCUAGACUGCC	0.11
GGCAGAGCUCAACACAGCGUGGCAAUGUGGCUAUGGCUAGACGGCC	0.05
GGCAGAGCGCAACAUAGCGUGGCAAAGUGGCUGUGGCUAGACAGGC	0.03
GGCAGGGCUCAACACAGCGUUGCAAAGUCGCUGUGGUUAGACUGCC	0.02
GGCAGAGCUCAACACAGCGGGGCAAAGUGGCUUUGGUUAGACUGGC	0.02
GGCAAAGCUCAACACAGCGUGGCAAGGUGGCUGUGGCUAGACUACC	0.1
GGCUGAGCUCAACACAGCGUGGCAAAGUGGCUGUGACUAGACUGCG	0.26
GGCAGAGCUUAACGUAGCAUGGCAAAGUGGCUGUGGCUAGACUGCC	0.04
GGCAGAGCUCAACACAGCGUAGCAAAGUUGCUGUGGCUAGUCUGCC	0.74
GUCAUAGCUCAACACAGAGUGACAAAGUGGCUGUGGCCAGACUGCC	0.01
GCCGGAGCUCAACACAGCUUGGCCAAGAGGCUGUGGCUAAACUGCC	0.01
GGCAGAGCACAGCACAGCGUGGCAAAGUGCCUGGGAAUAGACUGCC	0.02
GGCAGAGGUCAACCCAUCGUGUCAAAGUGGCUGUGGCUACACUGCC	0.01
GCAAGAGCUCAACACUGCGUGGCAAAGUAGCUGUGGCUAGACUGCC	0.12
GGCAGAUCUCAACACAGCGUGGCUGAGUGGCUGUGGCUAGACUGCC	0.07
GGCAGCGCUCAACACAGCGUGGCAAAGUGGCUGUGGCUAGCCUGUC	0.03
GGCAGAGCUCAACACAGCGUGGAAAAGUGGCUGUAGCUCGACUGCC	0.08

Variant	self-cleavage
GGUAGAGCUCAUCACAGCGUCGCAAAGUGGCUGUGGCUAGACUUCC	0.08
GGCAGAGCUCAACACAGCGAGGCAGAGUAGCUGCGGCUAGACUGCC	0.09
GGUAGGGCUCAACACAGCGUGGCAAAGUGGCUGUGGCUAGAGUGCC	0.14
GGCACAGCUCAACACAGCGUGACAAAGUUGCUGUGGCUAGACUGAC	0.04
GGGAGAGCUCAACACAGCGUGGCAAAGGGACUGUCGCUAGACUGCC	0.14
GGCAGAGCUAAAAACAGCGUGGCAAAGUGGAUGUGGCUAGACUGCA	0.02
GGCAGAGCUCAACACAGCGUGGCAAACUCACUGUGGCUAGACUGCC	1.08
GGCAGAGCUCAACAUAGCGCGGCAAAGUGACUGUGGCUAGACUGCC	0.13
GGCAGAGCUCAACACAGCGUAGCAAAGGGGCCGUGGCUAGACUACC	0.07
GGCAGAGCUCAACACAGCAUGGCAAUAAGGCUGUGGCUAGACUGCC	0.4
GGCAGAGCUCAACGUAGCGUGGCAAAGUGGCUGUCGCUCUACUGCC	0
GGGGGAGCCCAACACAGAGUGGCAAAGUGGCUGUGGCUAGAAUGCC	0.01
GGCAAAGCUCAACAGAGCGUGGCCAAGUGAUAGUGGCUAGACUGCC	0.01
GGCAGAGCUCAAGAAAGCGUGGCAUAGUGGCUGUGGCUAGACUGCC	0.03
GGCAGAGCUAAACACAGCUAGGCAAAGUGGCUGUGGCUAGACUGCC	0.01
GGCAGAGCUCCACACAGCGUGGCCUAGUGGCUGUGGCUAGACUGCC	0.04
GGCAGAGCGCAACACAGCGUGGCAAAGUCGCUGUGGCUAUACUGCC	0.04
GGCACAGCUCAACUCAGCGUGGCAAAGUGGCUGUGGCAAGACUGCC	0.16
